Results reported in the BET-seq Pho4 binding data (Le et al. 2018).
The list shows a part of the results. The energies were worked out here from pooled read counts, against the library average; single values are noisy.

The sequences below were run against T1, Pho4 (S. cerevisiae) (UniProt P07270) (assay: relative binding free energy (BET-seq); higher = weaker binding). Conditions: reference: library average.
T1 sequence: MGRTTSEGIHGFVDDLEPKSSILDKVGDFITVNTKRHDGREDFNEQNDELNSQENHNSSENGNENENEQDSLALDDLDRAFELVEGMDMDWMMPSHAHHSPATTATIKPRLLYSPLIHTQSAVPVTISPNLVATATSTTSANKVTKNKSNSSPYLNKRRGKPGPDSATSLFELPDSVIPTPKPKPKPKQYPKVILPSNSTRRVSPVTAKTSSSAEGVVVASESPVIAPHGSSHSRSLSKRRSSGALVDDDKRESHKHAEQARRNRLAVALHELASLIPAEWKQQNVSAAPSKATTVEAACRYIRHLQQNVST

Sequence	relative binding free energy [kcal/mol]
TGGATCACGTGGGGTC	0.2
TATAACACGTGTGGTA	0.01
AGCGGCACGTGTGAGC	0.03
TGGAGCACGTGATGAG	0.1
AGCTGCACGTGGAGTG	-0.04
TGCGTCACGTGTGAGG	0.04
TTGTTCACGTGTCAAT	0.3
CGGGTCACGTGGCTGA	-0.01
GAAAGCACGTGCGTGT	-0.09
ATTTGCACGTGCTATG	-0.12
TTCTCCACGTGGTTGG	-0.01
TGTAGCACGTGGGTAA	-0.23
GTACTCACGTGGTATT	0.1
GAGGTCACGTGAGGTA	0.19
TGGTCCACGTGAGGAG	0.13
GGGTGCACGTGATCCG	0.12
TTGGTCACGTGTTACT	0.09
ATTTCCACGTGGCGTT	0.07
TGATGCACGTGACGGT	0.18
AATTTCACGTGTGATC	0.39
TTAGTCACGTGTGAGG	0.07
AGAGTCACGTGCGTGT	0.08
AGGGGCACGTGGGACC	-0.05
TGAATCACGTGAGTTC	0.59
TGAAGCACGTGGGAGC	-0.08

Sequence	relative binding free energy [kcal/mol]
TGGCACACGTGTCGTG	-0.02
TTGATCACGTGTTCGG	0.15
TAAGGCACGTGGGGGC	-0.32
TATCGCACGTGTTAAA	0.18
TTATTCACGTGGTATG	0.1
TACATCACGTGGTAGT	0.08
TTGTTCACGTGGTTGG	0.29
TTTAGCACGTGTTTAA	-0.08
TGTCTCACGTGAGTAG	0.46
GGTGACACGTGAAATG	0.47
CTTTACACGTGCTTGG	0.08
GGGCGCACGTGGGCGC	-0.22
TGGCTCACGTGATTGT	0.33
TTTAGCACGTGTATTT	-0.02
CGGCTCACGTGTGGAG	0.15
TCTTGCACGTGATGTG	-0.04
TGTGTCACGTGCAGAT	-0.08
TTATTCACGTGACGTT	0.36
TTTGTCACGTGGAAAT	0.31
GGTGACACGTGCAAGG	0.2
TCTTTCACGTGTAGGT	0.21
TTTTTCACGTGTTCAT	0.17
TTCGTCACGTGGTCGA	0.09
GAATTCACGTGTAAGG	0.35
TGGTGCACGTGTATAA	0.12

Sequence	relative binding free energy [kcal/mol]
AGCGTCACGTGATGAG	0.27
GTCACCACGTGGGTGG	-0.17
TAAGGCACGTGTTCGG	-0.16
GGTAGCACGTGGAATG	0
TCTTGCACGTGGGTGT	-0.16
AAGGACACGTGTGGGA	0.02
GGTGGCACGTGTTTTT	0.09
ACTGGCACGTGTATTA	0.05
ACTGTCACGTGTTAGG	-0.03
CAATGCACGTGTTTGG	0.11
CGGGGCACGTGCATTG	0.03
TTAAACACGTGTGTCG	-0.06
GGAAGCACGTGGACTG	-0.03
GGGGACACGTGGGGTG	-0.04
CCTTGCACGTGTGGGG	-0.03
TAGTGCACGTGATGGT	0.11
GTAGACACGTGGGGGG	-0.15
TCGGTCACGTGAGGAT	0.24
AAGTTCACGTGTAGCT	0.25
GTTATCACGTGTGAGC	0.41
CTTGTCACGTGCGTAG	0.04
TTTAACACGTGTGGTT	0.09
ATGTACACGTGAAGGA	0.4
